The results in this text go back to the supplement of paper PMC7826260.

The list shows a part of the results. Cleavage of a single-stranded DNA pool by Rep nickase domains was read by sequencing (1 h at 37 °C, 3 µM enzyme); the outer parts of the 90-letter strands are left off. Numbers give uncut DNA relative to the enzyme-free pool, as log2; strong cutting gives strongly negative numbers. There is no active / inactive call. Shares of all reads are compared; where an enzyme cuts many sequences, the uncut ones exceed 0.

The subject of this assay is T1, Rep nickase domain of tomato golden mosaic virus.
T1 sequence (residues 1-124 of Rep, tag left off): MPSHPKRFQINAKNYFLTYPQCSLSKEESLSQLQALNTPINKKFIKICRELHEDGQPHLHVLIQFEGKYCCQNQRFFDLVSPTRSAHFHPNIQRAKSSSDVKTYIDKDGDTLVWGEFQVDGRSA
Description: uncleaved DNA left, log2 of reads against the no-enzyme library (log2 ratio); higher = less cleavage (more negative = more Rep cleavage of the k-mer); sequences stand for … in CTCGTCCG…ACCGGAGA
How it is done:
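A pool of 90-nt single-stranded DNAs with seven random bases just before the constant AC of the nick site (name = the seven bases) was cut by 3 µM recombinant His6-SUMO-tagged Rep nickase domain (300 nM DNA, 50 mM HEPES pH 8.0, 50 mM NaCl, 1 mM MnCl2, 1 h, 37 °C, three replicates). Uncut DNA was amplified and sequenced.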
Regarding CTCTATG, the “uncleaved DNA left (log2)” value is 0.0158. For GGTGGGG, the “uncleaved DNA left (log2)” value is 0.0952. As for TTCTGGC, the “uncleaved DNA left (log2)” value was -0.0902. As for TGATACG, the “uncleaved DNA left (log2)” value was -0.122. In the case of TTGGAGC, the “uncleaved DNA left (log2)” value came out at 0.0129. For ATGTGGC, the “uncleaved DNA left (log2)” value is -0.0871. Take ATCAAGA: the “uncleaved DNA left (log2)” value came to 0.0942. As to GGCAGGA, the “uncleaved DNA left (log2)” value was -0.0374. Then CAACACT, with -0.23; and TGGTGAA, with 0.0403. For TGCGGGG, the “uncleaved DNA left (log2)” value was 0.0998. Consider CTAGGAT, for which the “uncleaved DNA left (log2)” value came to 0.234. Take TATAAGT: the “uncleaved DNA left (log2)” value was found to be 0.0771. In the case of CTACGGC, the “uncleaved DNA left (log2)” value is 0.0651. For GTTTAAT the value was 0.0551; for GGTGCTG, -0.0205; for CCCCTAA, 0.0171. For the sequence GTACAGG, the “uncleaved DNA left (log2)” value came out at 0.0585.

CATCGAA: the “uncleaved DNA left (log2)” value is -0.078. In the case of TAAGTGC, the “uncleaved DNA left (log2)” value is -0.131.

In the case of AACGACA, the “uncleaved DNA left (log2)” value is -0.0422.

Consider CCAAACG, for which the “uncleaved DNA left (log2)” value was -0.0687. Consider CCTTTTT, for which the “uncleaved DNA left (log2)” value was -0.135.

Consider GATCGTA, for which the “uncleaved DNA left (log2)” value is -0.0459. With CTATATG, the “uncleaved DNA left (log2)” value is -0.0365. Then AGGGTCG, with 0.0247. For GCAATAT, the “uncleaved DNA left (log2)” value is -0.0408. Take ACTTATC: the “uncleaved DNA left (log2)” value is -0.13. Then AGTATAT, with 0.134; and ATTCCGT, with -0.0449; and TTACGGA, with 0.105. Take CACAAGC: the “uncleaved DNA left (log2)” value was -0.0603. Then ATCCGCC, with -0.091.

Take GGGCTCA: the “uncleaved DNA left (log2)” value came to 0.0212. As to CACTCCT, the “uncleaved DNA left (log2)” value is -0.254. For CCTATAT, the “uncleaved DNA left (log2)” value turned out to be 0.0592. For ATCCAGC the value was -0.0197; for ACACTCA, -0.0515. ATATTTG: the “uncleaved DNA left (log2)” value is -0.137.

GCTGCTA: the “uncleaved DNA left (log2)” value was -0.133.
